The campaign covered roughly 4,800 compounds. About 410 (8.5%) showed an effect of 50% or more. This is one part of the list.
The compounds below were run on Plasmodium falciparum (assay: Confirmatory screen in NF54 pLDH assay, in single point, at 2uM, 72h). Settings: timepoint 72 hour.
Assay type: functional, Erythrocyte

| SMILES | % Inhibition [%] |
| --- | --- |
| Cc1cccc2c1N(C(=O)[C@H]1CCS(=O)(=O)C1)CC2 | 13 |
| Nc1n[nH]c(N)c1Cc1cccc(Br)c1 | 2 |
| COc1ccc(-c2nc(-c3ccc(=O)n(C)c3)no2)c(OC)c1 | 9 |
| CCCN1CCN(C(=O)CN2CCCC2=O)c2ccc(F)cc21 | -1 |
| C#CCN(C(=O)c1ccncc1CC)c1nccs1 | -9 |
| COc1ccc(CC(=O)NCCOCCO)cc1 | 8 |
| O=C(CNC1=NC(=O)C(c2ccccc2)(c2ccccc2)N1)NCc1ccc(F)cc1 | 4 |
| CC[C@@H](CO)NC(=O)Nc1ccc(F)cc1 | 8 |
| CC(=O)Nc1ccc(NC(=O)CCC(C)C)cc1 | -6 |
| CN1CCN([C@H]2CCN(c3ccnc4ccc(Cl)cc34)C[C@H]2CCCO)CC1 | 60 |
| Cc1ccc(CNC(=O)c2cc3cc(OCc4ccccc4)ccc3n2Cc2ccccc2)o1 | 9 |
| CCCn1c(C)ccc(-c2noc(CCCC(=O)N3CCOCC3)n2)c1=O | 6 |
| O=C(Nc1ncc(CCO)s1)[C@@H]1CCCN1C(=O)Cc1cccs1 | 10 |
| CC(C)(C)OC(=O)N1CCC(c2nc(-c3ccc(F)c(C(F)(F)F)c3)c[nH]2)CC1 | -1 |
| O=C(Nc1ccn(Cc2cccnc2)n1)c1ccc(-c2ccccc2F)o1 | 6 |
| CCS(=O)(=O)Nc1ccc(S(=O)(=O)NC[C@@H](c2ccccc2OC)N2CCCCC2)c(C)c1 | 7 |
| CCN1CCC(NC(=O)CCc2c[nH]c3ccccc23)CC1 | 7 |
| COc1ccc2nc(C(F)(F)F)nc(N3CCNC(=O)CCN(C(=O)C(F)=C4CCCC4)CC3)c2c1 | 14 |
| CCn1c(C)cc(C(=O)O[C@@H](C)C(=O)Nc2ncccn2)c1C | -1 |
| Cc1cc(C(=O)Nc2cncc(Br)c2O)no1 | 5 |
| COc1ccc(NC(=O)Cn2cnc3nc(N4CCCCC4)ncc3c2=O)c(OC)c1 | 13 |
| CCOc1ccccc1NC(=O)[C@H]1CCCN(c2nc3cccnc3n(Cc3ccc(C)cc3)c2=O)C1 | -1 |
| CN(C(=O)c1ccc(NC(=O)c2cnsn2)cc1Cl)C1CCCCC1 | -9 |
| CCCc1cc(Nc2ccc(C(=O)NC[C@H]3CCCO3)cc2)n2nc(-c3cccnc3)nc2n1 | 15 |
| CCn1nc(C)cc1NS(=O)(=O)c1ccc2c(c1)C(C)(C)C(=O)N2C | -10 |
| COc1ccc(CNC(=O)c2sc(Nc3ccc(C)cc3C)nc2C)c(OC)c1 | -2 |

| SMILES | % Inhibition [%] |
| --- | --- |
| CCn1cc(Cl)c(-c2nnc(-c3cccc(C(F)(F)F)c3)o2)n1 | 6 |
| CCn1cc(C(=O)Nc2n[nH]c3ccc(C(F)(F)F)cc23)cn1 | -4 |
| O=C1CN(C(c2ccccc2)(c2ccccc2)c2ccccc2)CO1 | -7 |
| COC(=O)c1nc2ccccc2c(-c2cn(-c3ccc(C(F)(F)F)cc3)nn2)c1C(=O)OC | 3 |
| N[C@H]1C[C@H](c2cc(NCCCc3cccnc3)nc(C3CC3)n2)C1 | 77 |
| Cc1cc(=O)c(C(=O)Nc2cccc(Cl)c2O)c[nH]1 | 6 |
| CCn1nccc1[C@@H]1CC(c2cccc(O)c2)=NN1c1ccc(S(N)(=O)=O)cc1 | 12 |
| Cc1cc(O)n2nc(N(C)C(=O)C(=O)N3CCN(C)CC3)c(S(=O)(=O)c3ccccc3)c2n1 | 21 |
| Clc1cccc(CNCCCNc2ccncc2)c1Cl | 95 |
| CCCOc1ccc(CNC(=O)CCn2ccn3nc(-c4ccc(C)c(C)c4)cc3c2=O)cc1 | 5 |
| CC(=O)N(CC[C@]1(Cc2ccccc2Cl)CCOC(C)(C)C1)Cc1ccc(F)cc1 | -10 |
| N#CC1(O)C(C2COC3(CCCCC3)O2)OC2OC3(CCCCC3)OC21 (stereo not drawn) | 10 |
| Cc1[nH]c(=O)[nH]c(=O)c1NS(C)(=O)=O | 11 |
| COc1ccc(-c2cc3n(n2)C[C@@](C)(C(=O)NCc2ccccc2)N(Cc2ccc4c(c2)OCO4)C3=O)cc1 | 39 |
| c1ccc(CCc2nnc3n2CCOC3)cc1 | 3 |
| O=C(C[C@H]1CCN(C(=O)Nc2ccc3c(c2)OCCO3)C1)NCc1ccncc1 | 7 |
| CCC[C@H]1C(=O)NCCN1C(=O)c1cnn(CC2CCOCC2)c1C | 11 |
| CC(NC(=O)C1CCC1)C(=O)Nc1ccn(C(C)c2ccccc2)n1 (stereo not drawn) | -6 |
| O=C(c1cccc(-n2cccn2)n1)N1CCCCCCC1 | -8 |
| Cc1ccc2cnn(CCCNC(=O)c3ccco3)c2c1 | -1 |
| CCCN1C(=O)c2ccccc2N2C(=O)CC[C@@]12C(=O)Nc1ccc(OC)cc1 | 92 |
| Cc1noc(C)c1CC(=O)O[C@@H](C)C(=O)Nc1ccc(F)cc1 | 5 |
| CCn1nc(-n2cnnc2)c(NC(=O)c2cc(Br)ccc2OC)c1C | 11 |
| CS(=O)(=O)NCCn1nc(-c2cnccn2)cc1C1CC1 | 7 |
| NC(=O)C(NC(=O)c1cccc(Cl)c1)C(N)=O | 85 |
| CC(CC1OCC(C[N+]2(Cc3ccccc3)CCCCC2)O1)CC(C)(C)C (stereo not drawn) | 56 |

| SMILES | % Inhibition [%] |
| --- | --- |
| O=C(NOC1CCCCO1)NC1CCOC1c1ccc(Cl)cc1 (stereo not drawn) | 11 |
| COc1cccc(C(=O)N2CCN(c3nnc4ccc(C(F)(F)F)cn34)CC2)c1 | 10 |
| Nc1ncncc1C(=O)NCCc1c[nH]c2ccc(F)cc12 | 6 |
| CC(C)Cn1ncnc1COC(=O)c1cccnc1 | 10 |
| COc1cccc(C(=O)N2CCC[C@@]3(C2)Nc2cccnc2N=C3NCc2ccccc2)c1 | -10 |
| COc1cc2c(cc1-c1cccnc1)CCC(=O)N2C | -22 |
| CCc1ccc(CNC(=O)C2(N3CCOCC3)CCC2)s1 | -8 |
| Cc1nn(Cn2nc(-c3ccc(F)cc3)c(Br)c2-c2ccc(F)cc2)c(C)c1Cl | 6 |
| O=S(=O)(c1cccc(F)c1)c1cnc2c(F)cccc2c1-c1cccc(F)c1 | -3 |
| CC1(C)CN(C(=O)c2cn[nH]c(=O)c2)C(C)(C)CN1Cc1ccccc1 | 10 |
| Cc1nonc1NC(=O)CCCC1CCCC1 | 8 |
| CC(C)(NCc1ccncc1Cl)c1ccc2c(c1)OCO2 | -5 |
| CC1(C)CC(=O)C2(Cc3cc(C(F)(F)F)ccc3N3CCCC[C@H]32)C(=O)C1 | 9 |
| Cc1cc(C)c(C(=O)O)cc1NC(=O)c1oc(C2CC2)nc1C | -8 |
| O=C(Nc1nncs1)c1cccc(C(=O)Nc2nncs2)n1 | 64 |
| Cc1ccc2c(c1)nc(-n1nc(C)cc1C)c1nnnn12 | 6 |
| C[C@H]1CCCN(c2nc3ncn(CC(=O)Nc4ccccc4C(F)(F)F)c(=O)c3s2)C1 | -8 |
| Cc1nn(-c2nc3ccccc3[nH]2)c(O)c1CCC(C)C | 68 |
| Cc1cccc(NS(=O)(=O)c2ccc3c(c2)Cc2cc(S(=O)(=O)Nc4cccc(C)c4)ccc2-3)c1 | 11 |
| Cc1ccc(C(=O)N2C[C@@H]3C[C@H](NC(=O)c4cccnc4)[C@H]2C3)cc1F | -1 |
| O=C(NC1CC1C1CCCCC1)N1CCS(=O)(=O)CC1 (stereo not drawn) | -4 |
| Oc1ccc(C2=C(c3ccccc3)N=NCN2O)c(O)c1 | -12 |
| CCCNC(=O)O[C@@H]1CC[C@]2(C)C(CC[C@@H](O)[C@H]2CC(=O)N2CCC(C)CC2)[C@]1(C)CO (stereo partly drawn) | 8 |
| CN1C(=O)[C@@H]2CCCCN2c2ccc(C(=O)NCCN3CCN(c4ccccc4F)CC3)cc21 | 7 |
| COc1ccc(-n2nc(C)c3c2NC(=O)C[C@@H]3c2ccccc2OCC(C)C)nn1 | -1 |
| N[C@H]1C[C@@H](c2cc(N3CCN(C4CCCCC4)CC3)nc(N3CCCC3)n2)C1 | 50 |

| SMILES | % Inhibition [%] |
| --- | --- |
| Cn1nc(C(=O)NC2CCCCC2)cc1C(=O)NC1CCCCC1 | 12 |
| CCOC(=O)c1ccc2[nH]cnc2c1NC(C)=O | 5 |
| CCc1ccc(NC(=O)c2c(C)sc3ncnc(N4CCCCC4)c23)cc1 | 12 |
| CC(C)[C@H](OC(=O)n1ccnc1)C(=O)OC(C)(C)C | -16 |
| COc1ccccc1N1CCN(CC(=O)Nc2c3c(nc4ccccc24)N(c2cccc(C)c2)CC3)CC1 | -24 |
| Cc1ccc(NC(=O)CC2CCOCC2)cc1F | -17 |
| Cc1[nH]c2ccccc2c1C1CCN(C(=O)c2ccc(Br)cc2O)CC1 | -7 |
| O=C(O)c1cc2c(cc1C(=O)Nc1ccc(Cl)cc1)=[O+]c1ccccc1-c1ccccc1[O+]=2 | -8 |
| Nc1nc(C2CC(N)C2)cc(N2CCC(Oc3ccccc3Cl)CC2)n1 (stereo not drawn) | 65 |
| Nc1cc(Cl)c(C(F)(F)F)cc1N | 10 |
| Oc1ccc(-c2ncc3n2CCCC3)cc1 | 11 |
| CC(=O)N1CCC(Nc2ccc3c(c2)CCC(=O)N3)CC1 | -7 |
| Fc1cnc(OC2Cc3ccccc3C2)nc1 | 57 |
| O=C(ON1C(=O)CCC1=O)c1cc2ccccc2[nH]1 | 9 |
| O=C(NCCC1=CCOCC1)c1cnc2ccccn12 | -2 |
| O=c1[nH]c2ccccc2c(NCc2ccccc2)c1N1CCN(c2ccccc2)CC1 | 1 |
| O=C(CCc1nc(-c2cccc(F)c2)no1)NCc1ccc2c(c1)OCO2 | 11 |
| O=C(Nc1ccc(-n2cncn2)cn1)c1cscn1 | -14 |
| CCNC(=O)c1nc(-c2ccncc2)cs1 | -16 |
| O=C(N[C@H]1CCOC1=O)OCc1ccccc1 | -4 |
| CN1CCN(CC2(O)CCN(S(=O)(=O)c3ccc(Cl)cc3)CC2)CC1 | -17 |
| O=C(Cc1c[nH]c2ccccc12)NC1(C(=O)NC2CCCC2)CCCCC1 | 8 |
| Cc1cc2[nH]ncc2cc1NC(=O)c1ccco1 | 9 |
| COc1cc(CNCc2cccs2)ccc1OCc1ccccc1C | 5 |
| Cc1ccc(-c2nc3c(c(=O)n2CC(=O)NC[C@H]2CCCO2)CCN(Cc2ccccc2)C3)cc1 | -28 |

Source: ChEMBL document CHEMBL4888484, “Replenishing the malaria drug discovery pipeline: Screening and hit evaluation of the MMV Hit Generation Library 1 (HGL1) against asexual blood stage Plasmodium falciparum ,using a nano luciferase reporter read-out” (2022)
